Results reported in publication PMC4336329 (PLoS ONE, 2015).
The campaign covered roughly 310,000 compounds. About 14,000 (4.5%) showed an effect of 50% or more. Effects have a minus sign here. This is one part of the list.

These molecules were tested against human ether-à-go-go-related gene (hERG) potassium channel (human, UniProt Q12809) (assay: primary screen, population patch clamp on CHO cells stably expressing hERG).
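Further: peak tail current of the secondary pulse compared with the same well before compound.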

Chain of human ether-à-go-go-related gene (hERG) potassium channel (Q12809 whole entry, looked up): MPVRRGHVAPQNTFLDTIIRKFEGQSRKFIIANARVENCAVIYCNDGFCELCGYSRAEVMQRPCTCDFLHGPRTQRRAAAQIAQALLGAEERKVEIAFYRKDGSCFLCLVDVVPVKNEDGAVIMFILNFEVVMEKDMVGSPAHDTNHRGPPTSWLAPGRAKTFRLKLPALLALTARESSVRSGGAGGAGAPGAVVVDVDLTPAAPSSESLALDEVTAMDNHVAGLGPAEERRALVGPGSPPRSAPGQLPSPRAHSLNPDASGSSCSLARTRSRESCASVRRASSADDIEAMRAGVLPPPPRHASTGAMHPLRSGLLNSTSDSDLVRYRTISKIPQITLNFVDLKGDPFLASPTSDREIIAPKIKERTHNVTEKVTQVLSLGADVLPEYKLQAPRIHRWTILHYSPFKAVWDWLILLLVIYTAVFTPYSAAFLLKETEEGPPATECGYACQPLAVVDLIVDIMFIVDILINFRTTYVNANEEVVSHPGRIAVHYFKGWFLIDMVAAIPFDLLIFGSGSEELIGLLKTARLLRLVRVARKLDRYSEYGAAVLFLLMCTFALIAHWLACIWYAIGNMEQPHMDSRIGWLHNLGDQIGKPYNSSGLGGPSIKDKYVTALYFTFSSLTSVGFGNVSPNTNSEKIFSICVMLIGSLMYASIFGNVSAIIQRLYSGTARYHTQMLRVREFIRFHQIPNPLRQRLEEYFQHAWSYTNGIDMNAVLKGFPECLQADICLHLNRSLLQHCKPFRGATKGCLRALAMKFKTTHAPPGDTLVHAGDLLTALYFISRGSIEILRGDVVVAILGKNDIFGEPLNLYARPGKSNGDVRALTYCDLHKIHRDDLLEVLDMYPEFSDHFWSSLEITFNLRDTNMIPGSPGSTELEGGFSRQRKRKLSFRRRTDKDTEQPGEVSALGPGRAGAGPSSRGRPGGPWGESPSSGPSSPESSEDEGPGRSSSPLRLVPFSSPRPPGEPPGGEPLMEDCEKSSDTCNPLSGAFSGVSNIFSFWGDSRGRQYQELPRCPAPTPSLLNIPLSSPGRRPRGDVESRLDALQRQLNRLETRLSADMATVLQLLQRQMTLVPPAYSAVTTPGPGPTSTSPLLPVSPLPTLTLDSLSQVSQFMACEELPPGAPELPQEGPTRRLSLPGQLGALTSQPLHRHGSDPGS

| SMILES | hERG current change (%, negative = inhibition) at 10uM [%] |
| --- | --- |
| CC(C)COCc1ccc(O)c2ncccc12 | 13.7 |
| CO/N=C/NC(=O)Cc1cn(-c2ncc(C(F)(F)F)cc2Cl)c2ccccc12 | 3.84 |
| c1ccc(Cn2cc(CSc3ccccc3)nn2)cc1 | -11 |
| O=C(NNC(=O)c1ccc2c(c1)OCO2)NC12CC3CC(CC(C3)C1)C2 | -3.25 |
| Cc1ccccc1NC(=O)n1ncc2cc(Cl)ccc21 | 23.6 |
| COc1ccccc1OCc1ccc(C(=O)N2CCCCC2)o1 | 2.22 |
| O=C(CN(Cc1ccco1)C(=O)c1nsc(Cl)c1Cl)NC1CCCCC1 | 17.6 |
| O=C(CN1CCN(Cc2ccccc2)CC1)N1CCCc2c1c(=O)oc1ccc(O)cc21 | -14 |
| Cc1oc(C(C)(C)C)cc1C(=O)Nc1ccc2c(c1)OCCO2 | 8.81 |
| O=C(CSc1nnc(-c2ccccc2Br)o1)Nc1cccc2ccccc12 | 5.79 |
| COc1ccccc1C(=O)Nc1ccc(S(=O)(=O)N2CCN(C)CC2)cc1 | 0.775 |
| CC(C)(C)n1nnnc1CN(Cc1cccnc1)Cc1ccccc1Cl | -33 |
| COc1ccc(CCNC(=O)CCC(=O)NC2CCCC(C)C2C)cc1OC (centres unmarked) | 24.5 |
| COc1ccc(S(=O)(=O)N(CCc2ccccc2)CC(=O)N/N=C/c2ccc3c(c2)OCO3)cc1 | -2.88 |
| C=CCN1C(=O)C(Cc2ccc(F)cc2)S/C1=N/N=C/c1ccco1 (centres unmarked) | 14.2 |
| Cc1csc(NC(=O)c2ccc(C)c(S(=O)(=O)N3CCOCC3)c2)n1 | -20.1 |
| COCC(C)NC(=O)c1cc(-c2ccc(O)cc2)on1 (centres unmarked) | 0.634 |
| Cc1ccc(F)cc1NC(=O)CSc1ncccn1 | 8.32 |
| O=C(Nc1ccccc1-c1ccccc1)c1ccco1 | -0.737 |
| CC(Oc1ccc(F)cc1)C(=O)Nc1cccc(-c2nn[nH]n2)c1 (centres unmarked) | 14.3 |
| CCCN(CCC)CCCNC(=O)CN1C(=O)CSc2ccc(S(=O)(=O)N3CCOCC3)cc21 | 20.2 |
| O=C(Nc1ccccc1C(=O)N1CCOCC1)c1ccco1 | -6.53 |
| NC(=O)C1CCN(C(=O)c2ccc3c(c2)S(=O)(=O)c2ccccc2C3=O)CC1 | 2.8 |

| SMILES | hERG current change (%, negative = inhibition) at 10uM [%] |
| --- | --- |
| Cc1ccc(OCCNC(=O)Cc2ccc(F)cc2)cc1 | -0.491 |
| C[C@@H](C(=O)Nc1ccc2ccccc2c1)[C@H]1C[C@]1(C)[C@H](NS(=O)(=O)c1ccccc1)c1ccccc1 | 6.27 |
| O=C(CN1CCN(c2ccccc2F)CC1)NCc1ccc(Cl)cc1 | -19.1 |
| CCOC(=O)C1=C(COC(=O)c2sccc2C)NC(=O)NC1C (centres unmarked) | -8.98 |
| Cc1ccccc1Cn1cnc2c(NS(C)(=O)=O)c(C)c(C)cc21 | 7.89 |
| O=C(O)C(=O)O.O=C(c1ccc(F)cc1)N1CCN(C2CC3CCC2C3)CC1 (centres unmarked) | -2.85 |
| COc1ccc(Cn2c(=O)oc3ccc(C)cc32)cc1 | 1.22 |
| CC1CCN(CCCNC(=O)c2cc3c(Cl)nc4ccccc4c3s2)CC1 | -66.2 |
| Cc1ccc(NS(=O)(=O)c2cc(C(=O)Nc3cccnc3)ccc2C)cc1 | -14.1 |
| CCCCC[C@H]1CN(Cc2ccccc2)C(=O)[C@@H]1CC(=O)NCc1ccc(OC)cc1 | -56.4 |
| CCOC(=O)Cn1c2ccc(F)cc2c2nc(C)sc21 | -19.1 |
| O=C(OCC#CCSc1nnc(-c2ccc(Br)cc2)o1)c1ccco1 | 11.9 |
| CCCOC(=O)c1c(NC(=O)CCC(=O)O)sc2c1CCCCC2 | -5.04 |
| Cc1ccc2c(n1)sc1c(-c3ccccc3)c(C#N)c(N)nc12 | 6.31 |
| O=c1ncc(F)c[nH]1 | 15.3 |
| CC1(c2ccc3c(c2)OCO3)NC(=O)N(CC(=O)c2ccc[nH]2)C1=O (centres unmarked) | 4.56 |
| O=C(NCCCn1cccn1)C1CCC(=O)N(CCc2ccccc2)C1 (centres unmarked) | -10.3 |
| CCc1nnc(NC(=O)CCC(=O)N2CCN(Cc3ccccc3)CC2)s1 | 11.7 |
| Cc1nc(C(=O)N2CCc3c([nH]c4ccccc34)C2c2cc(F)ccc2F)cs1 (centres unmarked) | -3.27 |
| Cn1c(NC(=S)Nc2ccccc2)nc2ccccc21 | 16.3 |
| O=C(Nc1nc(-c2ccccc2)cs1)c1cccc([N+](=O)[O-])c1C(=O)O | 9.32 |
| Cc1c(-c2ccccc2)nc(N)c(C#N)c1-c1ccco1 | 12.6 |
| Cc1ccc(C(=O)Nc2nc(COc3ccccc3)cs2)s1 | 8.48 |

| SMILES | hERG current change (%, negative = inhibition) at 10uM [%] |
| --- | --- |
| NC(=O)COC(=O)[C@@H]1CC(O)CN1S(=O)(=O)c1ccc2c(c1)OCCO2 (some centres unmarked) | 13.1 |
| Cc1ccccc1N(C(=O)c1snc(C(N)=O)c1N)C(C(=O)NCC1CCCO1)c1ccc(N(C)C)cc1 (centres unmarked) | 13.8 |
| O=C(COc1ncnc2ccc(Br)cc12)NCc1ccco1 | 18 |
| Cn1cccc1Cc1nnc(SCC(=O)NCC2CCCO2)n1CCc1ccccc1 (centres unmarked) | -10.8 |
| CCCc1nc2ccccc2c(C(=O)OCC(=O)c2ccc3c(c2)NC(=O)CO3)c1CC | -2.97 |
| CC(=O)Nc1nonc1NC(=O)CSc1ncn[nH]1 | -11.3 |
| NC(=O)c1cc([N+](=O)[O-])ccc1NCc1ccc(C(=O)O)cc1 | 16.7 |
| COC(=O)[C@H]1[C@H](CCc2ccccc2)NC(=O)N(Cc2ccccc2)[C@@H]1C | -13.5 |
| O=P(O)(O)c1ccccc1OCCOCCOCCOCCOc1ccccc1P(=O)(O)O | -3.72 |
| CCOC(=O)C1(CCCc2ccccc2)CCN(Cc2nccn2CC)CC1 | -74 |
| O=C(c1cccc2ccccc12)N1CCC(N2CCN(c3ccccc3)CC2)CC1 | -22.7 |
| Cc1cc(Cn2nc(C(=O)NCc3cccc(Br)c3)cc2-c2ccccc2)on1 | -20.3 |
| Cc1cc(C)cc(Oc2ccc(C(F)(F)F)cc2C#N)c1 | 7.94 |
| O=C(CCS(=O)(=O)c1ccccc1)Nc1ccc(Cl)cn1 | -3.42 |
| COc1ccc(C(CNC(=O)COc2ccc(-c3ccccc3)cc2)N2CCOCC2)cc1 (centres unmarked) | -9.9 |
| O=C1NC2CCc3nc4ccccc4c(=O)n3C2=Nc2ccccc21 (centres unmarked) | -24.4 |
| Cn1c(CSCc2ccccc2)n[nH]c1=S | 23.8 |
| N#CC(C(=O)c1ccco1)c1ccccn1 (centres unmarked) | 13.6 |
| O=S(=O)(N/N=C/c1ccc(OC2CSC2)cc1)c1ccccc1 | 8.4 |
| CCOP(=O)(OCC)/C(=C/N1CCCCC1)NC(=O)c1ccccc1 | 19.5 |
| O=C(CN1CCc2ccccc21)NC(c1ccccc1)c1ccccc1 | -17.5 |
| Brc1ccc(-c2nnc(-c3ccccc3Br)o2)cc1 | 7.65 |
| CNC(=S)N1CCN(c2nc(-c3cccc(OC)c3)cs2)CC1 | -12.1 |

| SMILES | hERG current change (%, negative = inhibition) at 10uM [%] |
| --- | --- |
| O=C1Nc2ccccc2Nc2ncccc21 | 3.26 |
| C/C(=N\NC(=O)c1ccc(C)cc1C)c1ccc(-n2ccnc2)cc1 | -16.6 |
| COc1ccc(N2CCN(S(=O)(=O)c3ccc(-c4cnc(C5CC5)o4)cc3)CC2)cc1 | 17.6 |
| COC(=O)C1CN(C(=O)COc2cc(C)c(Cl)c(C)c2)c2ccccc2O1 (centres unmarked) | 18.9 |
| CCOC(=O)C1=C(CC)OC(N)=C(C#N)C1c1ccsc1 (centres unmarked) | 1.69 |
| Cc1ccc(C)c(NC(=O)c2cc[n+](C)cc2)c1.[I-] | 15.7 |
| CCN(CC)S(=O)(=O)c1ccc2oc(C(=O)Nc3ccc(OC)cc3OC)c(C)c2c1 | 4.93 |
| CC(C)C[C@H](NC(=O)C1CCN(S(=O)(=O)c2ccccc2)CC1)C(=O)NCc1ccccn1 | 11.1 |
| Cn1nnnc1NCc1c(F)cccc1Cl | -7.76 |
| COc1ccc(OCc2cc(C(=O)NC(C)Cc3cccnc3)no2)c(Cl)c1 (centres unmarked) | -36.3 |
| CN(CCOc1ccc(Cl)cc1)C(=O)c1ccc(S(=O)(=O)N2CCOCC2)cc1 | -74.9 |
| O=C(NCC(=O)N1CCN(C(c2ccccc2)c2ccccc2)CC1)c1ccc(Br)o1 | 8.38 |
| CC(=O)N(c1ccc(Cl)cc1)c1c[nH]c2ccccc12 | -16.6 |
| Clc1c(Cl)c(Cl)c2n[nH]nc2c1Cl | 26.5 |
| CC(C)CCc1c(O)nc(SCC(=O)N2CCCCCC2)[nH]c1=O | 6.23 |
| CCC(OC(=O)c1ccco1)C(=O)NCc1ccc(OC)cc1 (centres unmarked) | -8.67 |
| CCOC(=O)CNC(=O)c1nn(-c2cccc(OC)c2)c(=O)c2ccccc12 | -22.9 |
| C=CCc1cccc(/C=N/NC(=O)C(=O)Nc2ccc(C)cc2)c1O | 30.5 |
| CC(=O)c1ccc(NC2OC(C)C(O)C(O)C2O)cc1 (centres unmarked) | 14.5 |
| Cc1ccc(N(C(=O)CNC(=O)c2ccco2)C(C(=O)NCC2CCCO2)c2ccccc2)cc1C (centres unmarked) | -7.14 |
